Over roughly 33,000 sequences, “E-score (-0.5 to 0.5)” has its median near -0.016; the highest 2% begin near 0.31. This is one part of the list.
molecular target: Cst6 (UniProt P40535); assay: PBM E-score (8-mer binding enrichment) (E-score (-0.5 to 0.5)); higher = stronger / more preferred TF binding; most listed sequences are background and not binding sites; settings: protein concentration: 200 nM; construct: GST-DNA-binding domain
Procedure: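 Universal 'all 10-mer' protein binding microarrays (Agilent AMADID 015681) probed with GST-tagged S. cerevisiae TFs (full-length or DBD) made by in vitro transcription/translation (PURExpress), about 100-200 nM. Bound TF was detected with fluorescent anti-GST. Each ungapped 8-mer (which stands for itself and its reverse complement) is scored by the PBM enrichment score (E-score), a modified Wilcoxon-Mann-Whitney statistic from -0.5 to +0.5, computed with the Universal PBM Analysis Suite. Scale: above 0.35 generally sequence-specific binding.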

Sequence | PBM E-score
ATAATTGA | 0.201
CGTGTAAC | 0.0377
ATCCCTCC | -0.218
CGGTATCC | -0.274
TTACCCAA | -0.0649
ACCACACT | -0.0231
CTGAGGGC | -0.277
ATAAATAT | 0.221
GTCAACGA | 0.124
CGACCTGC | -0.0991
CAGTGTGA | 0.158
CGATGTGC | 0.0378
AGTATCCA | -0.123
ATCAAGAA | 0.251
AAGATGAA | -0.0562
ACCCCTAT | -0.00582
ATGCCTAG | -0.154
CAACCTCC | -0.3
TAACGCCA | 0.0789
TGATTACA | 0.305
AGCTACTG | -0.015
AACGAGCT | -0.043

Sequence | PBM E-score
AAACCTTC | -0.165
AGTGGAAG | -0.323
ATGAACTG | 0.12
CCCGACTC | -0.183
GATTGTTA | 0.175
CCAGTAGC | -0.116
CCTCAGCG | -0.115
TAACTACA | 0.0421
CAAAACAC | 0.0806
CACCCTCC | -0.236
CGATCCGA | -0.0643
CTGCGCAA | -0.0541
CTGTATGA | 0.1
ACGTAGAG | -0.01
ACCATTCT | -0.192
CACCCTGA | -0.151
GACAGGAA | 0.00052
GATGGCCA | -0.0625
ACTCCCAC | -0.238
GTGCGTTA | 0.0965
TGATACAA | 0.141
AGATTTGC | 0.147

Sequence | PBM E-score
ATCCATTA | 0.107
CGCATCCG | -0.0682
AACGCATG | 0.0389
ATACATCG | 0.0993
ACGACTAG | -0.0416
ACGGGGCG | 0.105
CACGACGC | -0.0944
CATGGCGC | 0.0147
CGCCCGCC | -0.129
AAACTCCA | -0.00312
ATACAATC | 0.09
AGTGCAGA | -0.0627
AACAAGTT | 0.0438
ACTCCTCA | -0.122
AGGTCGTA | -0.0992
AAAACCGC | -0.0283
AGTACAGC | -0.21
AGAGAATG | 0.124
AATAAAGT | 0.147
TCTATCAA | 0.0834
GCTATGCC | -0.0323
CCCTGCTA | -0.239

Sequence | PBM E-score
AGTCATGG | -0.00571
ACTACCAG | -0.196
CGTGTGGC | 0.0291
CTCACACC | -0.167
CATTGGTA | -0.00631
ATGTCCTC | -0.113
GCTCTTGA | -0.114
CGCCTATC | 0.0853
ATCGCCAA | -0.0793
ACCATGCG | -0.0952
GGGTCGCA | -0.144
TATGGCCA | -0.157
AGTCGACA | 0.0494
CTTAACTC | 0.0318
CCTCGAAA | 0.0797
AAGGAGTA | -0.163
ATCGTCTA | 0.0351
CGACGTGC | -0.0698
CGAACTTA | 0.0168
AATTGTCG | 0.0471
ACCAGCAC | -0.0814
CCAAGCCG | -0.182

Sequence | PBM E-score
GGCGATGA | 0.186
AGCCCGAG | -0.234
AGAGCTCT | -0.384
CGGCCAGC | -0.043
GAGTGCCC | -0.269
GGTTCACA | -0.0892
TAAGTTGA | 0.143
GGCATACA | -0.102
CCCAGAGC | -0.254
ACAGTCAC | -0.0122
ACTTCCCT | -0.025
CAGGCGTA | -0.0173
TAAGCGCA | -0.252
ACCAATGG | -0.218
CACCCACC | -0.0444
CCCCAGAA | -0.203
AAGGTATA | -0.035
ATCCGCGA | 0.105
CAGCTCCG | -0.0095
CTCTAACC | -0.234
AACTATAA | 0.157
TAAGCCTA | 0.0787
